# In all, about 33,000 sequences were measured (“E-score (-0.5 to 0.5)”: median about -0.013, highest 2% from about 0.3 on). The list shows a part of the results.
# Target: T1, Msn1 (UniProt P22148)
# T1 sequence: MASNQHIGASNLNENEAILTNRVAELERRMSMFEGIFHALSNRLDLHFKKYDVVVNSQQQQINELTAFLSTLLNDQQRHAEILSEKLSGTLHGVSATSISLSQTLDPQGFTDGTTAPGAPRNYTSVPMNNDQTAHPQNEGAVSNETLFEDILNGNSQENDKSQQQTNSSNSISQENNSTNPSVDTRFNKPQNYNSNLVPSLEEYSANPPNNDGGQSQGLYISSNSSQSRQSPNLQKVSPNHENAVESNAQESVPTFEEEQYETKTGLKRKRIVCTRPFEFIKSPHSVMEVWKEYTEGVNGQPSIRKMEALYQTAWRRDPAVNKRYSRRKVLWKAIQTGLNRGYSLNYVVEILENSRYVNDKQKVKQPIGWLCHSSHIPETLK
# Experiment: PBM E-score (8-mer binding enrichment) (E-score (-0.5 to 0.5)); higher = stronger / more preferred TF binding; most listed sequences are background and not binding sites
# Conditions: protein concentration: 200 nM; construct: GST-full length
# Method in brief: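 Masliner-normalised scans of fluorescent anti-GST signal were the basis for scoring. That signal came from GST-tagged yeast transcription factors applied at about 100-200 nM to double-stranded universal all-10-mer Agilent arrays on fresh or once-stripped slides. Each ungapped eight-base word, pooled with its reverse complement, received an E-score from the Universal PBM Analysis Suite.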
row,Sequence,PBM E-score
1,GCATAGGA,-0.103
2,ATCTTACC,-0.0804
3,ATCTCCCA,-0.13
4,GCGCATAA,0.00899
5,ACTAGGTG,-0.201
6,AGCGCCCA,-0.359
7,GAAGTGAA,-0.269
8,GTCCGCTA,0.104
9,ATCCGGTC,-0.082
10,GTCCATAA,0.231
11,CCGGTCAG,-0.0661
12,AATATCCT,0.0728
13,GCCTAGCA,-0.205
14,ACTGCAAC,-0.207
15,GACATGTA,0.424
16,AAATGCCT,0.139
17,CATCTAAA,-0.00101
18,GGGGCAAA,-0.0726
19,GCCGAAGA,0.1
20,AATAGTCC,0.157
21,GAACCCCC,-0.334
22,CGGACACA,0.371
23,ACCGAAGT,0.126
24,GGGAGGAC,0.0967
25,CCCTCAGA,-0.191

row,Sequence,PBM E-score
1,ATGCCTCC,-0.194
2,TTAGAGAA,-0.156
3,CACGGACG,0.175
4,CGCTTGCC,-0.0618
5,CAATTAAA,0.146
6,CGACGTCA,0.00949
7,AGTAAACC,0.0271
8,AGACTATA,0.0475
9,AATTTCCT,0.0244
10,CAGGATCC,-0.128
11,CCTTCAAC,-0.16
12,CCCGTACG,-0.161
13,ACGACTGG,-0.216
14,CCTGCCTC,-0.0901
15,CGGGGCAA,-0.0312
16,ATCGTCAT,0.152
17,CACTAACA,0.0318
18,ACACGAAC,0.0699
19,CGTTTCAC,0.0878
20,GAAGCCTA,-0.0508
21,AGTTGACG,0.0364
22,AGTGAGCC,-0.0358
23,GATCAAAC,0.056
24,CATCACTC,-0.283
25,TCAGCCCA,-0.213

row,Sequence,PBM E-score
1,CTAGAATC,0.033
2,GCTTGGCC,-0.145
3,CTGTCACC,-0.0649
4,CTTTAAAG,-0.0967
5,CATGTCAG,0.208
6,ATGTGTGG,-0.0556
7,GGCGGTAC,-0.135
8,GATGCGCA,-0.0138
9,TCAGCGCA,-0.104
10,CTGGTAAG,0.0824
11,ACATATTA,0.351
12,AGGTTTGA,-0.176
13,AAGAGGAA,-0.18
14,ACTCGTTA,-0.171
15,TCTCTCAA,0.112
16,AGACAACA,0.248
17,ACAAATAT,0.404
18,GGAGCGTA,-0.0645
19,ATTAGTCC,0.349
20,AAGACACC,-0.00494
21,AAACTAAC,0.102
22,AAGCGTTC,-0.0934
23,GATTCCCA,-0.0562
24,AGACATCT,0.29
25,AGCATCCT,-0.179

row,Sequence,PBM E-score
1,AGCACCGG,-0.096
2,GGTGTAGA,-0.233
3,GCCTGGCA,-0.217
4,AATAAAAT,0.278
5,ATCTCCAC,-0.0667
6,ATGCAATA,0.0215
7,TCACTTCA,-0.0878
8,GCAACAAC,0.0348
9,CGAAATAA,0.177
10,ACAACCAA,0.219
11,GAGCATAC,0.0391
12,AAAGCTTA,0.121
13,AGTCCCAC,0.0898
14,CGAATTCC,0.142
15,GGATTGAC,0.0636
16,CCGCGAAA,0.0408
17,CAAAGCTA,0.108
18,ACGCCAAA,-0.131
19,AGCCGTGC,-0.0809
20,ACTTAATA,0.0595
21,AGAATCGC,0.0421
22,CACTATGC,-0.0454
23,ATGCGGAA,0.0463
24,CCACACGG,-0.0693
25,GTCGTACA,0.274

row,Sequence,PBM E-score
1,GAGATTTA,-0.0103
2,CGGCACAG,-0.0667
3,AACACTAC,0.00687
4,TTCACCAA,-0.0507
5,GTCCAGGA,0.257
6,GCATTTCC,0.0637
7,AATCACGG,0.084
8,GATCTTCC,-0.00404
9,AGTATCAC,-0.0502
10,GACGATAA,0.127
11,AGCGGCAT,0.175
12,AAATTTAT,0.207
13,CCGACTAG,-0.166
14,CTTAATGA,0.0864
15,ATCGATGC,0.041
16,CCCGTCAC,-0.168
17,ATGAGGAG,-0.305
18,AGAAGCCA,-0.131
19,CCGCAGAG,-0.255
20,AACACGAG,0.0599
21,ACACAAAT,0.197
22,AAGCATGG,-0.177
23,AGCTAACC,-0.22
24,ACTGATAT,0.0204
25,ATTGCATA,0.115

row,Sequence,PBM E-score
1,ATGATGCA,0.136
2,CGATAACA,-0.0279
3,CGCTACCC,-0.239
4,CAACACTG,-0.0259
5,CGTTCAGA,-0.137
6,CGGCGATA,0.0816
7,AGTACAAA,0.44
8,AAACTGCC,0.0429
9,ACATGTAG,0.244
10,GCCTGGAA,-0.0683
11,ACACGCGG,-0.005
12,GCTACACC,-0.162
13,ATATAGCA,0.0324
14,CAAACCAA,0.254
15,ATCGTTGG,0.114
16,AAGTATCA,0.128
17,ACCTGAGG,-0.217
18,GCGATAGA,-0.0828
19,AAGATTAC,-0.0469
20,GATCGGAC,0.29
21,GTTACCCA,-0.047
22,ATATGCAC,-0.0123
23,AGGTGGTC,-0.244
24,ATGAATCA,0.0376
25,GACAAGTC,0.419

row,Sequence,PBM E-score
1,ATAACGGG,-0.0346
2,TTGATAAA,0.128
3,CCGTATCA,-0.00449
4,CTCTTCCA,-0.154
5,ACATTATA,0.15
6,GCTAATAC,0.00888
7,CACGGGGA,-0.217
8,ATTACAAG,0.0613
9,GTGGCCTA,-0.117
10,CCCTTTCA,-0.231
11,CAGCGAAA,0.0465
12,ATTAAGGC,0.066
13,CACTTTAC,-0.0285
14,AGGACGCC,-0.178
15,CTAATCAA,0.155
16,CGTCTAAC,0.0502
17,ATGGGGTG,-0.12
18,GGTTACGA,-0.217
19,AGGTCGAA,-0.0147
20,GGTCCCAC,-0.176
21,GGGTGGCA,-0.108
22,CGACCCGA,-0.046
23,AAGAATGT,0.268
24,CCAGGCGG,-0.0927
25,AGACGCGC,0.0536

row,Sequence,PBM E-score
1,CCATAAAC,-0.0335
2,GTAAGCGA,-0.0511
3,CGAGCTCA,-0.0163
4,CAGGTAAG,-0.013
5,AGGCGGTA,-0.0886
6,AATAGCGT,0.076
7,GAATGACA,0.34
8,TCCGAGAA,0.346
9,CTGCAGGA,0.194
10,CATACACG,0.254
11,GAGTGACC,0.0114
12,GGCAATTA,-0.149
13,ACAGTAAA,-0.00785
14,AAGGGCAG,-0.102
15,CGACTTAC,-0.00648
16,GGATTGGA,0.0131
17,CATATAGC,0.0969
18,CGCCACCA,-0.333
19,ATGGTTAC,0.00793
20,GCGTAACC,-0.0548
21,ACGAGTGC,-0.0619
22,ACTAAACC,0.0221
23,CCCACCTA,-0.135
24,ATCGGCTA,-0.0302
25,TATAACGA,-0.0116

row,Sequence,PBM E-score
1,CAGAATCC,0.102
2,CCGTTGAA,0.00808
3,TCTGGTAA,0.177
4,GAGAGGCA,-0.188
5,AGGCACCG,-0.156
6,CCACACCA,0.075
7,CGTGGCAA,-0.135
8,TCATTTAA,0.132
9,CGATAGTC,0.198
10,AGAACTCT,-0.119
11,GTACCGAC,0.0868
12,GTCGCCAC,-0.173
13,AAGTAAAC,-0.0142
14,ATGGATAC,-0.108
15,AAACAAAG,0.0504
16,AATCGCAA,0.0437
17,AGTACGGG,-0.0729
18,TAAGCTAA,0.238
19,CTTTCGGC,0.0124

# — the supplement of paper PMC3334620
